Reference: PMC10466050, “A comparative study of human and zebrafish glucocorticoid receptor activities of natural and pharmaceutical steroids” (Frontiers in Endocrinology, 2023)

Key:
[1] = biological target: zfGR (Danio rerio, UniProt Q1XHK0); assay: Antagonistic activity assessment in presence of 3 nM dexamethasone, UMLN-zfGR cells; assay type: cell-based, zebrafish; details: UMLN-zfGR; with 3 nM dexamethasone; % of maximal luciferase activity induced by 100 nM dexamethasone; at 10^-5M
[2] = biological target: T1, hGR (Homo sapiens, UniProt P04150); details: HMLN-hGR; with 3 nM dexamethasone; % of maximal luciferase activity induced by 100 nM dexamethasone; at 10^-5M
T1 sequence (P04150 1-777): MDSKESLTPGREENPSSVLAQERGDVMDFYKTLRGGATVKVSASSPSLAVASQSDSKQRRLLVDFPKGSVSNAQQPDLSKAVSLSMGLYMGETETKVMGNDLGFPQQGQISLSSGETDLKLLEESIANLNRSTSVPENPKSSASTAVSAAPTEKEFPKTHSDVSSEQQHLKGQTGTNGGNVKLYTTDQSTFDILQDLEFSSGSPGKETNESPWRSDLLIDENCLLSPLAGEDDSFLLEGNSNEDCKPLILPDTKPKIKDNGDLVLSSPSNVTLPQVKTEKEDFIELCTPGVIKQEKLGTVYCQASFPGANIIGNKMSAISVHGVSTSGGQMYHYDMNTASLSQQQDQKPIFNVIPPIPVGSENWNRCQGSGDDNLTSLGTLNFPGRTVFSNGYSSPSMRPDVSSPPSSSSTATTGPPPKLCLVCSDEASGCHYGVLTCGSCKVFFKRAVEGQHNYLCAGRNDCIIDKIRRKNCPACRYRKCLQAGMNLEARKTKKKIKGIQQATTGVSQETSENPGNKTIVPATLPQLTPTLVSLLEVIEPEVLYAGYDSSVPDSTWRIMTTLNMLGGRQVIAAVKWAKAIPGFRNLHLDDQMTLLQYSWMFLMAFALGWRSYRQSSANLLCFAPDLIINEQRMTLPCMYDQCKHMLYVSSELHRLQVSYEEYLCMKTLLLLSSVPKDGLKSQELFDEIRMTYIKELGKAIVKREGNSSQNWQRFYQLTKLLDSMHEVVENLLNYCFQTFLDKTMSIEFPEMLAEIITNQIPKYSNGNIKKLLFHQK

| % min act (minimal activity) [2] | SMILES | % min act (minimal activity) [1] |
| --- | --- | --- |
|  | C[C@]12CCC(=O)C=C1CC[C@@H]1[C@@H]2[C@@H](O)C[C@]2(C=O)[C@@H](C(=O)CO)CC[C@@H]12 [aldosterone] | 49 ± 5% |
| 2 ± 1% | C[C@]12CCC(=O)C=C1[C@@H]1C[C@@H]1[C@H]1[C@@H]3[C@@H]4C[C@@H]4[C@@]4(CCC(=O)O4)[C@@]3(C)CC[C@@H]12 [drospirenone] |  |
